# Measured values as given in article PMC4336329 (PLoS ONE, 2015).
# Screen size: about 310,000 compounds; about 2,200 (0.71%) showed an effect of 50% or more. Effects have a minus sign here. The list shows a part of the results.
# Molecular target: human ether-à-go-go-related gene (hERG) potassium channel (human, UniProt Q12809)
# Test: primary screen, population patch clamp on CHO cells stably expressing hERG
# Sequence of human ether-à-go-go-related gene (hERG) potassium channel (Q12809 whole entry, looked up): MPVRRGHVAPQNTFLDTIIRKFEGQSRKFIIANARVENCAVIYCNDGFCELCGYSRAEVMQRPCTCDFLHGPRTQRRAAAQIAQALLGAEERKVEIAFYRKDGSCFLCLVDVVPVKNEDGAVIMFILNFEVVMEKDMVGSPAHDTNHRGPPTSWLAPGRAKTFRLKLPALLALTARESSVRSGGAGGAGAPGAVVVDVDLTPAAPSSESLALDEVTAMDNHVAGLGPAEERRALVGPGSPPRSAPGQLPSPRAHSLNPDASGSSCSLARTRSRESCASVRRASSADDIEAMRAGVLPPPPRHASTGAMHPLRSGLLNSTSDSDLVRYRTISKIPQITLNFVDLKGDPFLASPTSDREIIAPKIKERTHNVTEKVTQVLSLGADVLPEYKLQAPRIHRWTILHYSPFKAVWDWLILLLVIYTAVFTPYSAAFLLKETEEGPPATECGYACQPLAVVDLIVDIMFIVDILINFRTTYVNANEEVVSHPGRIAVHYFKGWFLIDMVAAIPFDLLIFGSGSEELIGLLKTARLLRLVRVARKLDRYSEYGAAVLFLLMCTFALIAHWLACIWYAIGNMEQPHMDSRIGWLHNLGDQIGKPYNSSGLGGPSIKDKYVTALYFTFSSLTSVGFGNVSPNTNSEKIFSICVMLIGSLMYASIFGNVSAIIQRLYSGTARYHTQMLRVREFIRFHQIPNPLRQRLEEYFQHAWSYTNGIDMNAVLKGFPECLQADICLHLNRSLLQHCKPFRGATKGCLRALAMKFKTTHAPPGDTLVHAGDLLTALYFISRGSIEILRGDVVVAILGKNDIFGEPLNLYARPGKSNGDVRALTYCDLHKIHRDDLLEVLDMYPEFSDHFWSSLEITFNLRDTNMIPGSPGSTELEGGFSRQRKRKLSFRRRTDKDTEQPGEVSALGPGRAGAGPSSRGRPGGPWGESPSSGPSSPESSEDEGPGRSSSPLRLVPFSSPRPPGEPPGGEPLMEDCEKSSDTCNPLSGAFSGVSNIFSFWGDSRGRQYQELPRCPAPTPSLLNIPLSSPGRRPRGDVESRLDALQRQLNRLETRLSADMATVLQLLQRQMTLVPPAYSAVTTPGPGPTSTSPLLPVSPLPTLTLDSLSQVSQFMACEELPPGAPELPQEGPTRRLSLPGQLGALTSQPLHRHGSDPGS
row,SMILES,"hERG current change (%, negative = inhibition) at 1uM [%]"
1,COc1cccc(Nc2ccc(-n3ccnc3)nn2)c1,12.3
2,O=C(N1CCOCC1)N1CCN(c2ccccc2F)CC1,7.61
3,Cc1ccc(C(=O)NCCCN2CCOCC2)cc1S(=O)(=O)N1CCOCC1,8.87
4,COC(=O)c1cccc(NC(=O)c2cnoc2C)c1,1.75
5,CCOC(=O)N1CCN(S(=O)(=O)c2ccc3[nH]cc(C(=O)O)c(=O)c3c2)CC1,5.65
6,COc1ccc(/C(C)=N/NC(=O)CNC(=O)c2ccco2)c(OC)c1,11.1
7,CC(=O)N1CCN(CCN=Cc2c(O)n(-c3ccc(C)cc3)c(=S)[nH]c2=O)CC1,13.8
8,CC(C)c1ccc(/C=C/C(=O)NC(=S)NN2CCOCC2)cc1,11.6
9,CN1CCN(Cc2c(O)ccc3cc(-c4ccccn4)c(=O)oc23)CC1,10.1
10,CC1(C)CC(=O)C2=C(C1)OC(N)=C(C#N)C2C#Cc1ccccc1 (stereo not drawn),14.7
11,CN(C)S(=O)(=O)c1ccc(-c2ccccc2)cc1,11.9
12,Cc1csc2ncc(C(=O)NCCc3ccccc3)c(=O)n12,1.47
13,COc1ccc(N=C2NC(=O)S/C2=C\c2ccc(N(C)C)cc2)cc1,15.3
14,CCOC(=O)CSc1ccc(C(=O)Nc2ccc(OC)cc2)cn1,10.7
15,O=C1CC(=C2c3ccccc3-c3ccccc32)C(=O)N1CCN1CCN(c2ccccc2)CC1,7.75
16,COc1ccc(CC(NC(C)=O)C(=O)NC2CCN(C(=O)NCc3ccccc3)CC2)cc1OC (stereo not drawn),4.4
17,Cn1cnc([N+](=O)[O-])c1Oc1ccccc1,14.2
18,Cc1ccn(C(C)CC(=O)N2CCc3ccccc32)n1 (stereo not drawn),17.7
19,COc1cc(OC)c(CN2CCc3c([nH]c4ccccc34)C2)cc1Br,-7.57

row,SMILES,"hERG current change (%, negative = inhibition) at 1uM [%]"
1,Cc1cc(-c2onc(C)c2C(=O)Oc2ccc(Cl)cc2)no1,8.73
2,O=C(COc1ccc(Cl)cc1)N1CCN(c2ncccn2)CC1,2.43
3,CCN(CC(=O)NC1CCS(=O)(=O)C1)C(C)C(=O)Nc1ccc(F)cc1 (stereo not drawn),5.2
4,CC1(C)Cc2ccccc2C(Nn2cnnc2)=N1,10.9
5,Cc1nn(C(C)C)c(C)c1CN1CCCC(C(=O)c2cccc(OC(C)C)c2)C1 (stereo not drawn),-14.4
6,Cc1ccc(N(C(=O)CNC(=O)c2ccco2)C(C(=O)NC2CCCC2)c2cccnc2)cc1 (stereo not drawn),-14.5
7,Cc1ccc(C)c(N2CCN(S(=O)(=O)c3cc4c(cc3C)NC(=O)CO4)CC2)c1,8.57
8,Nc1c(S(=O)(=O)c2cccc(Cl)c2)c2nc3ccccc3nc2n1/N=C/c1ccc(O)c(O)c1,7.06
9,CS(=O)(=O)NCCCCNc1ccc(C(F)(F)F)cc1[N+](=O)[O-],-5.13
10,COc1ccc(C(=O)COC(=O)Cn2c(C)csc2=O)c(OC)c1,5.35
11,Cn1cccc1/C=N/NC(N)=S,7.01
12,COc1ccc(C)cc1N(CC(N)=O)S(=O)(=O)c1ccc(C)cc1,-3.84
13,O=C(OCN1C(=O)c2ccccc2C1=O)c1ccccc1,0.0125
14,Cc1ccc(OCC(=O)Nc2ccc(NC(=O)c3ccccc3)c(C)c2)cc1,11.6
15,COc1ccc(NC(=O)CCN2C(=O)C3C4CCC(C4)C3C2=O)cc1 (stereo not drawn),2.12
16,O=[N+]([O-])c1ccccc1CN1CC=C(c2ccc(F)cc2)CC1,12.9
17,O=C1CNc2ccc(C(=O)N3CCN(c4ccccn4)CC3)cc2N1,18.6
18,Cn1c(C(=O)N2CCC(C(=O)N3CCC4(CC3)OCCO4)CC2)cc2sccc21,9
19,Cc1oc(-c2ccccc2)cc1C(N)=O,11.2

row,SMILES,"hERG current change (%, negative = inhibition) at 1uM [%]"
1,CCOC(=O)N1CCN(C(=O)c2cc(Cl)c(Cl)cc2C(=O)O)CC1,19
2,CC1=NOC(=O)/C1=C\c1ccccc1,7.39
3,COCCn1c(=NC(=O)CSCC(=O)Nc2cc(C)on2)sc2cc(C(=O)OC)ccc21,1.04
4,COC(=O)CCCCCc1ccc(C(C)=O)s1,4.86
5,COC(=O)c1cccc(CN2C(=O)SC(Nc3ccccc3)C2=O)c1 (stereo not drawn),-0.398
6,O=C(NCCCO)/C(=C\c1cn(-c2ccccc2)nc1-c1cccnc1)NC(=O)c1ccccc1,3.53
7,CC(C)(O)CCCC(C)(O)c1ccc(C(=O)O)cc1O (stereo not drawn),8.89
8,Cc1nc(SCC(=O)Nc2c(C)nn(C)c2C)c2cnn(-c3ccccc3)c2n1,17.9
9,Cn1c(CN2CCCC2)nc2cc(NC(=O)COc3ccc([N+](=O)[O-])cc3)ccc21,0.265
10,O=C(COC(=O)c1ccc(Cl)nc1)Nc1c(Cl)cccc1C(F)(F)F,13.6
11,Cc1ccc(C)c(N2CCN(C(=O)CCS(=O)(=O)c3cccc4nonc34)CC2)c1,3.92
12,O=C(NC(Cc1ccccc1)C(=O)N1CCCCCC1)c1ccccc1 (stereo not drawn),-1.66
13,Cc1ccc(C(c2nnnn2CS(=O)(=O)c2ccc(C)cc2)N2CCC(C(N)=O)CC2)cc1 (stereo not drawn),-17.2
14,CC(=C/C(=O)O)/C(=C\c1ccc(Br)o1)C(=O)O,6.83
15,Nc1nnnn1/N=C/c1cccc(O)c1,16.6
16,Cn1c(/C(C#N)=N/O)nc2ccccc21,-1.03
17,COc1ccc(-n2nc(C(=O)NCC(=O)N3CCCCCC3)c3ccccc3c2=O)cc1,15.8
18,COc1cc(C(C(=O)NCc2ccccc2)N(Cc2ccco2)C(=O)c2cnccn2)cc(OC)c1OC (stereo not drawn),14.7
19,Cc1cc(Cl)c(S(=O)(=O)Nc2ccc3c(c2)OCO3)cc1OCC(=O)NC1CCCCC1,24.1
